Data taken from US20020142355A1 (BAYLOR COLLEGE OF MEDICINE, published 2002).

Target: T1, human alpha-1-antitrypsin (AAT) fused to the N-terminus of the BAP, secreted without BirA (not biotinylated) (human, UniProt P01009)
T1 construct: mature; also called AAT-BAP
Experiment: Western blot of TCA-precipitated culture medium, avidin-HRP probe

T1 sequence (P01009 other isoform, or with tags, fused parts or gaps): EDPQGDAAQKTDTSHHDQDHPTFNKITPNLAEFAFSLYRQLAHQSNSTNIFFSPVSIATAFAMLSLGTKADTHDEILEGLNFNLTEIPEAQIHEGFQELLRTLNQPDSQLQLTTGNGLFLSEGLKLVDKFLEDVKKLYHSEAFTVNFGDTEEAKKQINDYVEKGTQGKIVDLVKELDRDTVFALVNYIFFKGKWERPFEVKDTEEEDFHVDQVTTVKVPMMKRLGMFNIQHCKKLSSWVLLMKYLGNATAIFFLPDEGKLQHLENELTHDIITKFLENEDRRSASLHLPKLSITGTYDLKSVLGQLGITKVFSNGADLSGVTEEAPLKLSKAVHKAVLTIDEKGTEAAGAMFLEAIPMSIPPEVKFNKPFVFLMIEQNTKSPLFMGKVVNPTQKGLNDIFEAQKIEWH

B1: avidin-HRP (other, UniProt P02701 25-152, looked up)
chain: ARKCSLTGKWTNDLGSNMTIGAVNSRGEFTGTYITAVTATSNEIKESPLHGTQNTINKRTQPTFGFTVNWKFSESTTVFTGQCFIDRNGKEVLKTMWLLRSSVNDIGDDWKATRVGINIFTRLRTQKE
modifications: conjugated to HRP
notes: Bought detection reagent; also called avidin-HRP conjugate
B1: no binding.
